The whole screen tested about 150,000 compounds, of which about 540 (0.36%) showed an effect of 50% or more. The list shows a part of the results.
The compounds below were run on Plasmodium falciparum (assay: Primary screen in NF54 nanoGlo assay, in single point, at 2uM, 72h; a lower Z score goes with more inhibition). Details: timepoint 72 hour.
Type: functional, Erythrocyte

SMILES | % Inhibition [%] | Z score
Cc1nnc(C(=O)N2CCC(CCN3CCOCC3)CC2)s1 | 0 | -0.05
CC1(C)N=C(c2ccccc2)C(=O)N1CC(=O)N1CCN(c2ccccc2F)CC1 | -3 | 0.41
CCc1ccc(C(=O)N(C(=O)c2ccc(CC)cc2)c2sc3c(c2C#N)CCC3)cc1 | 33 | -3.75
CN(C(=O)CC(C)(C)C)c1nc2ccccc2o1 | 16 | -1.6
CN(CCNc1cc([C@H]2CCOC2)ncn1)Cc1ncc[nH]1 | -8 | 1.47
Cc1c(C(=O)O)sc2ncnc(NCc3ncc[nH]3)c12 | 2 | -0.21
CC(=O)N1CCC2(CC1)NN=C1C=CC(c3nc(C(C)(C)C)no3)=CN12 | 31 | -4.05
Cc1cccc(S(=O)(=O)CCCn2ccnc2C(C)C)c1 | -8 | 1.06
Nc1ccc(C(=O)N2C[C@@H]3CC[C@H]2CN(C(=O)C2CCC2)C3)cn1 | -21 | 2.3
CCCn1ncc2[nH]c(-c3ccc(OC)c(F)c3)nc21 | -7 | 0.82
O=C(CCCc1cn[nH]c1)N[C@H]1CC[C@H]1NC1CCCCCC1 | 10 | -1.81
NS(=O)(=O)C1CCN(C(=O)C2C3CCCC32)C1 (stereo not drawn) | -16 | 2.28
CS(=O)(=O)N(CCCN1CCOCC1)[C@H]1CCN(C(=O)CCC2CCCC2)C1 | -2 | 0.33
C1CCn2nnnc2[C@H](c2nc(C3CC3)n[nH]2)C1 | -7 | 1.19
COCc1cc(C[C@@H]2CC[C@H](O)[C@@H](CNC(=O)c3ccc4c(c3)OCO4)O2)no1 | 27 | -3.12
COCc1cc(-c2cn(C[C@H](O)CO)nn2)ccc1OC | -4 | 0.76
Cn1nc(-c2cccnc2)cc1CNC(=O)c1ccc2ccccc2n1 | 9 | -1.13
CCOC(=O)c1c2c(n(NC(N)=O)c1C)C(=Cc1ccccc1)CC2 | -15 | 2.16
Cc1cc(C)c(-c2nc3cc(-n4cnnn4)ccc3[nH]2)c(C)c1CO | -1 | 0.2
Cc1cnc(N2CC(C)OC(C3CC3)C2)s1 (stereo not drawn) | -9 | 0.83
COCCN1CCN(Cc2ccc(Cl)s2)[C@H]2CS(=O)(=O)C[C@H]21 | -8 | 1.1
COc1ccc(CN2C[C@H](C(=O)O)[C@@H](c3ccccc3OC)C2)cc1F | -10 | 1.39
CCN(C(=O)C12CCC(C)(c3nc4ccccc4nc31)C2(C)C)c1ccccc1 (stereo not drawn) | -9 | 1.11
NC(=O)[C@@H]1CN(C(=O)c2c3c(nc4ccccc24)CCC3)CCO1 | -11 | 1.1
CCCN(CC(=O)N(CCc1ccccc1)Cc1ccco1)C(=O)Cc1ccc(F)cc1 | -15 | 1.69
Cc1ccc(Cl)c(-c2ccc(C(=O)N3CCCN4CCC[C@H]4C3)cc2)c1 | -1 | 0.17
C[C@](O)(CNC(=O)Nc1ccccc1C(F)(F)F)C1CC1 | -8 | 1.4

SMILES | % Inhibition [%] | Z score
CNc1nc(NCc2nc(C)sc2C)ncc1Br | -11 | 1.65
COCC1(C(=O)NC2CCN(S(=O)(=O)c3ccccc3)CC2)CCC1 | 4 | -0.69
CCc1nnc2n1CCC1(CC2)CCN(C(=O)c2cccnc2C)CC1 | -17 | 1.63
COCC1(CNC(=O)C[C@@H]2C=CCC2)CCC1 | 1 | -0.19
Cc1noc(-c2csc(Cc3ccccc3)n2)n1 | -3 | 0.62
Cc1ccc2nc(-c3ccc(F)cc3)c(CNCc3cn(C)nc3C)cc2c1 | 0 | 0.02
CCc1n[nH]c(C(=O)N[C@@H](CCO)C2CCCCC2)c1Br | 30 | -3.42
Cc1ccc(N2C(=O)CN(S(=O)(=O)c3ccccc3)C[C@@]2(C)C(=O)NC2CCCC2)cc1 | 0 | -0.04
C[C@H](C(=O)N(C)c1ncccn1)C1CC1 | -9 | 0.88
N#Cc1ccc(C(=O)N2CCc3n[nH]c(=O)n3CC2)cc1 | -1 | 0.14
CCOc1cccc(C(=O)N2C[C@@H](c3nc(C)no3)O[C@@H](C)C2)c1 | 8 | -0.83
Cc1ccccc1CC(C1CCN(C(=O)C(C)Oc2ccccc2)CC1)N(C)C(=O)Cn1cccn1 (stereo not drawn) | -5 | 0.91
O=C1CC[C@H](NCc2cnc(C3CC3)o2)C2(CCC2)N1 | -3 | 0.54
Cc1cccc(OCC(=O)N[C@H]2CCc3[nH]c4cc(Cl)cc(Cl)c4c3C2)c1C | 4 | -0.78
CN1CCc2ncnc(N3CCN(Cc4ccco4)CC3)c2C1 | -13 | 2.11
Cn1cnnc1Cn1ccc2ccn(Cc3ccccc3F)c2c1=O | -8 | 1.02
CCOCCCNC(=O)CN1C(=O)CCn2nc(-c3cn(C)c4ccccc34)cc21 | 0 | 0
CCOc1cccc(C2Nc3ccc(F)cc3[C@H]3OCCC[C@@H]23)c1OC (stereo partly drawn) | -9 | 1.34
O=S1(=O)CCC[C@H](Cn2cc(-c3ccc4c(c3)CCC4)nn2)C1 | -3 | 0.34
CN1CC(=O)N2CCN(Cc3cccc(-c4ccco4)c3)C[C@H]2C1=O | -4 | 0.7
CCCc1nc(C(=O)NCc2c(C)n[nH]c2C)cs1 | -4 | 0.78
CC(=O)N1CCC(N(C)CC(=O)c2ccc(O)cc2)CC1 | -8 | 1.2
COCCN1C[C@]2(CCCN(C(=O)c3ccc(N)nc3)C2)CCC1=O | -1 | 0.2
Cc1c([C@H](C)NCc2ccccc2F)cnn1-c1cccc2ccccc12 | -13 | 1.18
COC[C@@H]1C[C@@H](O)CN1C(=O)NCc1coc2ccccc12 | -2 | 0.41
Cc1cn2c(n1)CC[C@H](NS(=O)(=O)c1ccc(C)c(N(C)C)c1)C2 | -1 | 0.15
CCN(C(=O)CCN1CCCS1(=O)=O)c1cccnc1 | -8 | 1.37

Source: ChEMBL document CHEMBL4888484, “Replenishing the malaria drug discovery pipeline: Screening and hit evaluation of the MMV Hit Generation Library 1 (HGL1) against asexual blood stage Plasmodium falciparum ,using a nano luciferase reporter read-out” (2022)
